Assay results as given in paper PMC4336329 (PLoS ONE, 2015).
The whole screen tested about 310,000 compounds, of which about 14,000 (4.5%) showed an effect of 50% or more. Effects have a minus sign here. This is one part of the list.

Target: human ether-à-go-go-related gene (hERG) potassium channel (human, UniProt Q12809)
Assay: primary screen, population patch clamp on CHO cells stably expressing hERG
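Note: peak tail current of the secondary pulse compared with the same well before compound.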

Chain of human ether-à-go-go-related gene (hERG) potassium channel (Q12809 whole entry, looked up): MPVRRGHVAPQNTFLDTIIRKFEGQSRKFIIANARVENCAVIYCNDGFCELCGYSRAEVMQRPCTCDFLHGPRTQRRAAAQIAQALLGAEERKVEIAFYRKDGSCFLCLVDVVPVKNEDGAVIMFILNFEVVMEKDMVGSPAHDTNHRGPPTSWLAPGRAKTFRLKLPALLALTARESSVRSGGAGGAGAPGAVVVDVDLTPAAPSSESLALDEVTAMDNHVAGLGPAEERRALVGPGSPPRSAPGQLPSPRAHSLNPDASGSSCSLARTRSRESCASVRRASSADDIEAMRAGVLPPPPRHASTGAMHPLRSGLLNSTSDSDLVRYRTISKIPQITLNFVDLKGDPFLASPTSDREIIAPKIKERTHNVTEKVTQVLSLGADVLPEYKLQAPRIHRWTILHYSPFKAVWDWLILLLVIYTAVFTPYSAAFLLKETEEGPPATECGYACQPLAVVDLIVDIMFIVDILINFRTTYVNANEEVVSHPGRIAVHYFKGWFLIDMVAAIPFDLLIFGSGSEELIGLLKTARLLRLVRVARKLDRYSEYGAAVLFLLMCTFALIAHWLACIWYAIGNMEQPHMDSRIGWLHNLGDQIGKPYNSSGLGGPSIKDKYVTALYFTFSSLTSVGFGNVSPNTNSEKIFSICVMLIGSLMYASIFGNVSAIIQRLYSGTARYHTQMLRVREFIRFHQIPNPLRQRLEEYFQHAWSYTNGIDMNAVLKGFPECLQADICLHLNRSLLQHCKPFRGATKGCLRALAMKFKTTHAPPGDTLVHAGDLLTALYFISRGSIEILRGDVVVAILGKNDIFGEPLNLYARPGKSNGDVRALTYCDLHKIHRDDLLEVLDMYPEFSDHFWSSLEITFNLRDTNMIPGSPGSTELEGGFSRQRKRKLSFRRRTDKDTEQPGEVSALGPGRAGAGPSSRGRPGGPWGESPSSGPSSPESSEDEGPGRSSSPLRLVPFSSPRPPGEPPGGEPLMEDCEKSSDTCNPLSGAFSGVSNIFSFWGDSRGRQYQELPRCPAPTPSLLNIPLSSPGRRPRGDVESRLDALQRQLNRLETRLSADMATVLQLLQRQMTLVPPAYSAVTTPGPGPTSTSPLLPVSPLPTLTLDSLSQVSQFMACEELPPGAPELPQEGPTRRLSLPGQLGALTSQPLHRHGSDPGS

Row | Structure (SMILES) | hERG current change (%, negative = inhibition) at 10uM [%]
1 | COc1ccccc1N(CC(=O)N1CCCC1)S(=O)(=O)c1ccc(C)cc1 | 5.18
2 | COc1ccc(Cl)cc1NC(=O)CN(C)C(=O)Cn1c(=O)oc2ccccc21 | -15.5
3 | O=c1c2ccccc2oc2cc(C#CC3(O)CCCCC3)ccc12 | 8.35
4 | Cc1cc(C)cc(-c2nc(-c3ccncc3)no2)c1 | 7.71
5 | Cc1ccc(OC(=O)Cn2c(C(F)(F)F)nc3ccccc32)cc1 | 1.11
6 | CC(=O)c1sc(-c2ccccc2Cl)nc1C | 12.5
7 | O=C(NCc1ccc(F)cc1)C1CCN(S(=O)(=O)N2CCCCC2)CC1 | -10.4
8 | Cl.N[C@@H](CCC(=O)O)C(=O)O | 9.48
9 | Oc1ccccc1/C=N/N1CCCCC1 | 6.81
10 | C#CC(C)OC(=O)Nc1cnccc1C(F)(F)F (stereo not shown) | 11.5
11 | CCOC(=O)C1=C(C)NC(=S)N(C(C)=O)C1c1ccc(OC)c(OC)c1 (stereo not shown) | 10.6
12 | COc1ccc(NC(=O)CN2CCN(S(=O)(=O)c3ccc(C(C)C)cc3)CC2)cc1OC | -66.5
13 | Cc1cc2cc(CNC(=O)Nc3cccc(Cl)c3)ccc2n1C | 19.4
14 | COc1ccc(C(=O)N/C(=C\c2ccco2)C(=O)NCCCn2ccnc2)cc1 | -19.7
15 | NC(=O)NN=C1C2CCCC1C(c1ccccc1)NC2c1ccccc1 (stereo not shown) | -7.17
16 | Cc1cccc(CSC2=NCCN2C(=O)c2ccc(S(=O)(=O)N(C)C)cc2)c1 | 7.62
17 | Cc1nc(C/C(=N\Nc2ccccc2)c2ccc(O)cc2O)cs1 | -3.9
18 | CCN(CC)CCP(=O)(c1ccccc1)c1ccccc1 | -15.2
19 | CC(C)(C)CN1CCNC(=O)C1CC(=O)NCCc1cnn(-c2ccccc2)c1 (stereo not shown) | -0.753
20 | Cc1ccc(/C=C(\C#N)c2nn(-c3ccccc3)c(N)c2C#N)cc1 | -21.1
21 | COc1cccc(CN(C)C(=O)[C@@H](NC(=O)c2ccc(C)cc2)C(C)C)c1 | -18.4
22 | CN(C(=O)CSc1nnc(-c2ccncc2)n1-c1ccccc1)C1CCS(=O)(=O)C1 (stereo not shown) | 7.61

Row | Structure (SMILES) | hERG current change (%, negative = inhibition) at 10uM [%]
23 | O=C(CN1CCN(CCC(=O)Nc2ccccc2F)CC1)Nc1ccc(Cl)cc1 | -76.8
24 | Cc1cc(NC(=O)CCC(=O)N(CC(=O)NC2CCCC2)Cc2ccc3c(c2)OCO3)no1 | 6.12
25 | Cc1c(C(=O)N/N=C/c2cccc(O)c2)nnn1-c1nonc1N | 4.88
26 | O=C(CSc1nnc(-c2ccccc2O)o1)Oc1ccc(Br)cc1 | 5.91
27 | Fc1cccc(Cl)c1CSc1nnc(CNc2ccccc2)o1 | -21.5
28 | CCOC(=O)C(C)Sc1nc2c(c(-c3cccs3)c1C#N)CCC2 (stereo not shown) | -8.45
29 | COc1ccc(OC)c(CNC(=O)C(C)n2nc(C)c3c(C)n(-c4ccccc4)nc3c2=O)c1 (stereo not shown) | -7.41
30 | COc1ccc(CNC(=O)Cc2csc(NC(=O)Nc3ccccc3OC)n2)cc1 | -2.11
31 | CCC(C)(C)NC(=O)C(c1ccc(F)cc1)N(Cc1ccco1)C(=O)c1snc(C(N)=O)c1N (stereo not shown) | -7.32
32 | CCCCn1c(N)c(N(CC)C(=O)c2ccco2)c(=O)[nH]c1=O | 14.7
33 | CC(OC(=O)CN1C(=O)c2ccccc2C1=O)C(=O)NC1CCCCC1 (stereo not shown) | 8.5
34 | O=C(CN(Cc1ccc(Cl)cc1)C(=O)CNS(=O)(=O)c1ccc(F)cc1)NCC1CCCO1 (stereo not shown) | -15.2
35 | CCOC(=O)c1ccc(NC(=O)C2CC2)cc1 | -18.4
36 | O=C1c2ccccc2C(=O)N1CCc1csc(-c2cccc(Cl)c2)n1 | -16.5
37 | COc1ccc(Cc2noc(CN(C)Cc3cccc(-n4cccn4)c3)n2)cc1OC | -13.5
38 | CCC(C(=O)NCCCN1CCN(C)CC1)n1nc(C)n2c(cc3occc32)c1=O (stereo not shown) | 17.1
39 | Cn1c(=Nc2ccccc2)sc2ccccc21 | -13.4
40 | COc1ccc(-n2nnnc2SCC(=O)Nc2nnc(C)s2)cc1 | 0.313
41 | Cc1c(C(=O)OCC(=O)NCCc2ccc(S(N)(=O)=O)cc2)oc2ccccc12 | 19.4
42 | CC(=O)c1cc(OC(=O)c2ccncc2)ccc1OC(=O)c1ccncc1 | 3.9
43 | Cc1ccc(/C=N/n2c(-c3ccc(Cl)cc3)n[nH]c2=S)s1 | 8.02
44 | COc1ccc(C(=O)CSc2nnc(-c3ccccn3)n2Cc2ccco2)cc1 | -20.2

Row | Structure (SMILES) | hERG current change (%, negative = inhibition) at 10uM [%]
45 | COc1ccc(CNC(=O)C2CCN(S(=O)(=O)c3cc(OC)ccc3OC)CC2)cc1 | -11
46 | O=C(CSc1nnnn1C1CCCC1)Nc1ccc2c(c1)OCCO2 | 6.01
47 | CC(/C=N/Nc1ccc2nncn2n1)=C\c1ccccc1 | -51.8
48 | O=C(Nc1ccccc1Cl)C1CCCN(S(=O)(=O)c2ccc(-n3cnnn3)cc2)C1 (stereo not shown) | 0.0853
49 | O=C(Nc1ccncc1)C1CCN(S(=O)(=O)c2ccc(Cl)c(C(F)(F)F)c2)CC1 | -69.9
50 | CC(C)(C)N1C(=O)c2ccccc2NC(=O)N1Cc1ccc(Br)cc1 | 5.07
51 | CC(C)c1nc(SCC(=O)Nc2ccc([N+](=O)[O-])cc2Br)n[nH]1 | -30.3
52 | O=[N+]([O-])c1ccc(Sc2nc3ccccc3o2)c([N+](=O)[O-])c1 | 20.1
53 | O=C(CN1C(=O)NC2(CCc3ccccc32)C1=O)c1ccc(Cl)cc1 (stereo not shown) | -17
54 | CN1CCN(C2=C(Cl)C(=O)N(c3cccc(Cl)c3)C2=O)CC1 | 4.54
55 | CC(C)(C)C(=O)Nc1nc(-c2ccccc2)ns1 | -8.35
56 | COC(C/C=C\[C@@H](O)[C@H](C)OCc1ccccc1)OC | 25.7
57 | COc1ccc(OC)c(NC(=O)C(CC(=O)O)Cc2ccc(Cl)cc2)c1 (stereo not shown) | 6.05
58 | COC(=O)Cc1[nH]c(=S)[nH]c1C(=O)OC | 6.22
59 | c1ccc(N2CCN(c3cnc4ccccc4n3)CC2)cc1 | -6.77
60 | O=c1[nH]c(=O)n(CCc2ccccc2)c(O)c1C=NCCCn1ccnc1 | -2.66
61 | COC(=O)c1cc(C(=O)NC(C)(C)CC(C)(C)C)cc([N+](=O)[O-])c1 | -19.7
62 | COc1ccc(OC)c(NC(=O)NNC(=O)c2cc3occc3[nH]2)c1 | 14.3
63 | CCOc1ccccc1N1C(=O)c2ccc(C(=O)Nc3cccnc3)cc2C1=O | -30.2
64 | CCCCn1c(N)c(N(CC)C(=O)c2ccc(C)cc2)c(=O)[nH]c1=O | 28.3
65 | CN(C)c1ccc(C(C(=O)NCc2ccccc2)N(Cc2ccco2)C(=O)c2snc(C(N)=O)c2N)cc1 (stereo not shown) | -9.36
66 | COc1cc(NC(=O)CSc2nc(C)c(C)c(C)n2)cc(OC)c1 | -3.53

Row | Structure (SMILES) | hERG current change (%, negative = inhibition) at 10uM [%]
67 | COC(=O)c1ccc(COC(=O)CCC(=O)c2cccs2)cc1 | 12.5
68 | C=CCn1c(=O)c(C=Nc2c(OC)cccc2[N+](=O)[O-])c(O)n(CCCC)c1=O | -23.8
69 | COc1ccc(C(CNC(=O)c2oc3ccc(Br)cc3c2C)N2CCCCC2)cc1 (stereo not shown) | -13.3
70 | O=C1/C(=C/c2ccccc2[N+](=O)[O-])COc2ccccc21 | 14
71 | Cn1cc(/C=C(\NC(=O)c2ccccc2Cl)C(=O)N2CCOCC2)c2ccccc21 | 14.3
72 | CCOC(=O)c1c(NC(=O)CSc2nnc(-c3cccnc3)o2)sc2c1CCC2 | -11.1
73 | Cc1ccccc1Nc1nc(CSc2nnnn2-c2ccccc2)cs1 | -2.74
74 | CSc1ccc(NC(=O)N2CC(C)OC(C)C2)cc1 (stereo not shown) | 4.42
75 | CCOC(=O)C1CCN(C(=O)Nc2cccc(Cl)c2)CC1 | 8.82
76 | COc1cc(C(=S)NCc2ccccc2)cc(Br)c1O | 2.7
77 | O=C(c1ccccc1Cl)N1CCc2ccccc2C1 | -8.59
78 | Cc1ccc(C)n1-c1cc([N+](=O)[O-])ccc1-n1ccnc1 | -28.7
79 | C[C@]12CC[C@@H]3c4ccc(OS(=O)(=O)[O-])cc4CC[C@H]3[C@@H]1CCC2=O.[K+] | 21.8
80 | CCN1C(=O)/C(=C2/Sc3ccccc3N2CC)SC1=S | 9.35
81 | COc1ccc(C(=O)Oc2ccc(C(=S)N3CCCC3)cc2)cc1OC | 16.1
82 | COc1ccc(C(O)c2nc3ccccc3n2C)cc1OC (stereo not shown) | 11.9
83 | COc1ccc(CN2CCN(CCC(C)C)C(CCO)C2)cc1Cn1cncn1 (stereo not shown) | 1.78
84 | CCOc1ccccc1CN1CCNC(=O)C1CC(=O)NC1CCCCCC1 (stereo not shown) | -4.82
85 | COc1ccc(C2C(C(=O)c3ccco3)=C(O)C(=O)N2CCc2ccccc2)cc1OC (stereo not shown) | -3.32
86 | CSc1nnnn1-c1ccc(C(=O)O)cc1 | 20.3
87 | CCN1CCN(c2cc(=O)n(C3CCCCC3)c(=O)[nH]2)CC1 | 5.59
88 | CCn1cc(S(=O)(=O)c2ccc(Cl)cc2)c(=O)c2cc(OC)ccc21 | -18.6
